Test results reported in PMC7819943, “Rice protein-binding microarrays: a tool to detect cis-acting elements near promoter regions in rice”.
This is one part of the list.

Target: T1, OsWOX13 (Oryza sativa, UniProt Q5QMM3 1-267)
T1 sequence: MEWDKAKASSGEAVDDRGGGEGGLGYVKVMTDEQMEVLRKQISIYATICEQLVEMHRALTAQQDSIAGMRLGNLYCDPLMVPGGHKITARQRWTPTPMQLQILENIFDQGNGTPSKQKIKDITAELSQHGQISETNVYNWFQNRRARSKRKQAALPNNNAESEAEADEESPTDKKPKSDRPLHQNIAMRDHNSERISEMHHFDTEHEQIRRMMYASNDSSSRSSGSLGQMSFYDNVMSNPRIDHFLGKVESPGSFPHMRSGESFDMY
Assay: protein-binding microarray (RPBM); PBS, 2% BSA, 51.3 ng/ul salmon testes DNA, 50 uM zinc acetate, 200 nM TF, 25 C, 1 h; high values mean tight binding
Conditions: protein: recombinant; tags: N-terminal polyhistidine and DsRed monomer fusion (pET32a); label: CyDye5-dUTP incorporated in the synthesized complementary strand; 3' TTTTT single-stranded linker to array surface; dsDNA, one strand shown
Method in brief: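 Binding signal here means per-feature fluorescence intensity in arbitrary units. The values were read on an Axon 4000B scanner after a custom Agilent array, double-stranded by primer extension with Cy5-dUTP, was incubated with 200 nM protein at 25 °C for 1 h in PBS with 2% BSA, salmon testes DNA and 50 µM zinc acetate, then washed. The proteins were transcription factors with an N-terminal polyhistidine tag and DsRed, expressed in E. coli BL21-CodonPlus and purified on Ni–NTA.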

| Sequence | binding signal |
| --- | --- |
| ATTGATACTATAATTGCACATAAAGTTTTATTCAAGCAGTCGGAGTCACCTAGTGCAG | 6130 fluorescence intensity (a.u.) |
| TGCACGCTAATTTGCCTTGCTGCTGCTGCTACTAGGGCGGCGGAGTCACCTAGTGCAG | 4920 fluorescence intensity (a.u.) |
| CTAGACTGGCGTATAGCAATCCGAAGACGAAGAAAGAAGGCGGAGTCACCTAGTGCAG | 3170 fluorescence intensity (a.u.) |
| ACTTTTCTACGGGAATTGACAACTGCTAGTAAAACCCATACGGAGTCACCTAGTGCAG | 3570 fluorescence intensity (a.u.) |
| CTGATTAACTCTTCAATCAAATCCCTAACTTGAGTGCATGCGGAGTCACCTAGTGCAG | 57200 fluorescence intensity (a.u.) |
| AGATAATTAGTGAGGGCTACTGTATGTTTTGTGATACTTGCGGAGTCACCTAGTGCAG | 34200 fluorescence intensity (a.u.) |
| GGGCTCAATCAATTTGAGAGAACAAAAGGAGGTGGGCCCACGGAGTCACCTAGTGCAG | 14400 fluorescence intensity (a.u.) |
| TGGATGGATTGAGATGGAGGCCGGCCGTGGCGCATGTGAGCGGAGTCACCTAGTGCAG | 3950 fluorescence intensity (a.u.) |
| TTAATAATTATTGTAAAATTTAATTTATATTTATTTGAATCGGAGTCACCTAGTGCAG | 22600 fluorescence intensity (a.u.) |
| TCCATGTAATTTGTGAAGATGAGCTTTGTTCCCAACGACTCGGAGTCACCTAGTGCAG | 9820 fluorescence intensity (a.u.) |
| AGTTCCCTCTAATTATAATTATAATGTCCTTGGTTTAGGACGGAGTCACCTAGTGCAG | 16200 fluorescence intensity (a.u.) |
| CCGCAAATTATGCAAACCACCTTTCTAAGCCAGTGGTTTTCGGAGTCACCTAGTGCAG | 4120 fluorescence intensity (a.u.) |
| AAAATTGAAACTTTCAATGCTATATGTAACCAACTTTGTCCGGAGTCACCTAGTGCAG | 11300 fluorescence intensity (a.u.) |
| CGCTTTAACATTTAAATTTAGCTTTAAAAGTTTATTATGGCGGAGTCACCTAGTGCAG | 6480 fluorescence intensity (a.u.) |
| CGATGATTTTGTCCGGTCTCCGCGTCCGGGCCCACCTGACCGGAGTCACCTAGTGCAG | 6650 fluorescence intensity (a.u.) |
| TTAACAAATTGGTTATCCTCTCCTCGCAGTTCGCTTAAAACGGAGTCACCTAGTGCAG | 9140 fluorescence intensity (a.u.) |
| GGGAATTGAATGGTTCTTTGCACATATATATAAAGATGAACGGAGTCACCTAGTGCAG | 13200 fluorescence intensity (a.u.) |
| ATAATTAGTGATCTATATATGCATCTCACGTAGATGGTTCCGGAGTCACCTAGTGCAG | 10100 fluorescence intensity (a.u.) |
| ACCAACTAAATCGAAAATCACCGAATGGCTCGTCATCCTCCGGAGTCACCTAGTGCAG | 3150 fluorescence intensity (a.u.) |
| TTAAATTATACATTAATGATTTAGCTCGTCTTAGGTGCGGCGGAGTCACCTAGTGCAG | 46900 fluorescence intensity (a.u.) |
| CGTTTCTTATAATATGGTAATTACCGTATTCTAAATATGTCGGAGTCACCTAGTGCAG | 4030 fluorescence intensity (a.u.) |

| Sequence | binding signal |
| --- | --- |
| AGGAAGATGATTGAATGTTGATTTGTAGAATTTAAAGAATCGGAGTCACCTAGTGCAG | 45000 fluorescence intensity (a.u.) |
| ATGTAAATTATCTTAGCTTGAAGGAGATGTATATTATGTACGGAGTCACCTAGTGCAG | 15100 fluorescence intensity (a.u.) |
| CTATAATTTAAACATGTAAAGTTTACGTGTATATAAATTTCGGAGTCACCTAGTGCAG | 8480 fluorescence intensity (a.u.) |
| GAACAAATTTTGATAACAAGATAACCATTACGCTTTCGCGCGGAGTCACCTAGTGCAG | 4980 fluorescence intensity (a.u.) |
| TCATTGTAATTGGGCCTATCTTTGGTTGGGCCTGGAGCCCCGGAGTCACCTAGTGCAG | 12700 fluorescence intensity (a.u.) |
| TTGCCCATTAATTTACCCAAGTATCCATGCGGACCATGCCCGGAGTCACCTAGTGCAG | 5180 fluorescence intensity (a.u.) |
| TATTATTGACAGAAATAGGAGATTTGTCCCATCTTATTTTCGGAGTCACCTAGTGCAG | 22600 fluorescence intensity (a.u.) |
| TTCTGAAATTAGGCAATTGTTTATGGGGATCTCATCCTTTCGGAGTCACCTAGTGCAG | 3940 fluorescence intensity (a.u.) |
| AAACTTGATGATTGTTCTGTATTCTTATTTCTGAACAAAACGGAGTCACCTAGTGCAG | 9930 fluorescence intensity (a.u.) |
| GGATGAAATTAGCCCATCAGCAATTACGTGTAGGCCGTAGCGGAGTCACCTAGTGCAG | 3690 fluorescence intensity (a.u.) |
| GCTCTAATAATTGAATAATTTGATTTGTTTTATTTAAATCCGGAGTCACCTAGTGCAG | 30100 fluorescence intensity (a.u.) |
| TCTTATCATTAGATTGGATTAGTATGAAGATAGCAGTTATCGGAGTCACCTAGTGCAG | 16700 fluorescence intensity (a.u.) |
| GCACTATCAATTCTTCTTGATTCTTCTTTGTATTTGGATTCGGAGTCACCTAGTGCAG | 3370 fluorescence intensity (a.u.) |
| TGGGCAGCAGCTTGATTTGATTGCTTCATTTATCAAGTTGCGGAGTCACCTAGTGCAG | 13600 fluorescence intensity (a.u.) |
| TGCTAATCAGCCATTAGCAGCCAAAATAGCACATCAGCTACGGAGTCACCTAGTGCAG | 4580 fluorescence intensity (a.u.) |
| TTATTAAATTTTGATCAAACTTCAATGTTTCAAAATTGAACGGAGTCACCTAGTGCAG | 7080 fluorescence intensity (a.u.) |
| CCGGTCGGATCTAATTAATTTACCTCCTCCACCTCCTCCTCGGAGTCACCTAGTGCAG | 7380 fluorescence intensity (a.u.) |
| AATGACATGGCAATCTCACCTTGGAGGTTTGTGCTTTGAACGGAGTCACCTAGTGCAG | 4460 fluorescence intensity (a.u.) |
| GATGATAAATTAAGTCACAATAAATAAATAATAATAATATCGGAGTCACCTAGTGCAG | 5820 fluorescence intensity (a.u.) |
| AACCAGCTCGTCAATTAATTATTGTGATTACGTTTCATCTCGGAGTCACCTAGTGCAG | 42400 fluorescence intensity (a.u.) |
| CTCAAATACAAATTTGTATTTCCAAAGACGAACGAACTTACGGAGTCACCTAGTGCAG | 3190 fluorescence intensity (a.u.) |
